The values below come from PubChem BioAssay AID1346428 (National Center for Advancing Translational Sciences (NCATS), 2018).

The structures appear in SMILES notation. About 1,200 (2.5%) of roughly 48,000 compounds were called active. About 2% were inconclusive and are not listed.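 Rule for the calls: active = activation of at least 60% and not above a set upper limit (about 1 call in 100 departs from these limits); inconclusive = activation of 40% to 60%, or above that upper limit; inactive = activation under 40%.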 Some of the results follow.

In this assay the target is Probable G-protein coupled receptor 32 (Homo sapiens) (UniProt O75388). In words: qHTS for Agonists of Human Resolvin D1 Receptor DRV1. Note: 0% is about no effect. To be noted: CHO-K1 GPR32 beta-arrestin PathHunter luminescence, 90 min; at 76.9 µM; hits give high values; zero percent set by DMSO-only wells. Summed up: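 Readings come from a cell-based beta-arrestin complementation format: CHO-K1 GPR32 stable cells (2,500/well) treated 90 min with compounds, then beta-Gal substrate added for 1 h before chemiluminescence imaging.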
Chain of UniProt O75388 (O75388 whole entry, looked up): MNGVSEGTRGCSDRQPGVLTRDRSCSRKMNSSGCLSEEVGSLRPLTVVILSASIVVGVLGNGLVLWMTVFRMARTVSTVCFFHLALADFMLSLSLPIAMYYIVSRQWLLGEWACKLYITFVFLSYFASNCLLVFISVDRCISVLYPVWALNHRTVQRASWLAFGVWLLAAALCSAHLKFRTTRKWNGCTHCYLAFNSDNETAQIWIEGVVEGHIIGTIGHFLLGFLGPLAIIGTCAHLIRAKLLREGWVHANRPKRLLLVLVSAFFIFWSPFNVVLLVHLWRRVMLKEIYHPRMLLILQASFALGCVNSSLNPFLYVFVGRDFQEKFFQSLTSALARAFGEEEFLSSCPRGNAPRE
(qHTS replaces the single test concentration by a dilution series.)
`CCc1nn(CCCC(=O)N2CCN(c3cc(Cl)ccc3C)CC2)c(=O)c2cc3occc3n12`: the activation is inactive: -14.2%. For `COc1ccc(CC(=O)NC2CC(=O)N(c3cccc(F)c3)C2)cc1OC` (stereo not drawn) the value was inactive: 2.68%; for `CCOC(=O)c1c(C)n(S(=O)(=O)c2ccc(C)cc2C)c2ccc(NS(=O)(=O)c3ccc(C)cc3C)cc12`, inactive: -21%. The result for `COc1ccccc1Nc1sc(C(=O)c2ccc3c(c2)OCO3)c(N)c1S(=O)(=O)c1ccccc1` reads inactive: 8%; that for `Cc1ccc(C2=Nc3ccccc3N(CC(=O)Nc3ccccc3F)C(=O)C2)cc1C`, inactive: -15.5%. For `CCCCN1C(=O)c2[nH]nc(-c3ccccc3O)c2C1c1ccc(C(C)(C)C)cc1` (stereo not drawn) the value was inactive: 0.574%; for `CCC1Oc2ccc(C)cc2N(CC(=O)NCc2ccc(OC)cc2)C1=O` (stereo not drawn), active: 64.4%; for `O=c1oc2ccccc2cc1-c1nnc(Nc2ccc(Cl)cc2Cl)s1`, inactive: -0.345%. Turning to `CCN(CC)CCCNC(=O)Cc1ccc(NC(=O)N2CCCCc3ccccc32)cc1`, the activation is inactive: -24.4%. The result for `O=C(Nc1cccc(Cl)c1)c1ccc2nc(CCc3ccccc3)oc2c1` reads inactive: 2.6%; that for `CCCn1c2ccccc2c2cnn(CC(=O)NCc3ccccc3Cl)c(=O)c21`, inactive: 34.4%. For `Cc1nc(-c2ccccc2)sc1-c1ccc(SCC(=O)Nc2cccc(C(F)(F)F)c2)nn1` the value was inactive: -5.27%. On to `COc1cccc(C2CC(=O)Nc3cc4c(cc32)OCO4)c1OC(C)C` (stereo not drawn), for which the activation is inactive: 23.5%.

Turning to `CCC(=O)N1CCc2cc(Br)cc(S(=O)(=O)N3CCC(C(=O)Nc4ccccc4CC)CC3)c21`, the activation was inactive: 5.48%. In the case of `CC(=O)NC1CC(=O)N(c2ccc3c(c2)OCCO3)C1` (stereo not drawn), the activation is inactive: 0.759%.

As for `Cc1ccc(-c2nc3cc(Cl)ccc3o2)cc1NC(=O)c1cc([N+](=O)[O-])ccc1N1CCOCC1`, the activation was inactive: -1.38%. The result for `CC(C)Oc1ccc(CNC(=O)C2CCN(c3nc4ccccc4nc3C(F)(F)F)CC2)cc1` reads inactive: 6.48%; that for `COc1ccc2nc(NC(=O)Nc3ccccc3)sc2c1`, active: 101%.

`COc1cc(OC)c(NC(=O)C2CCN(C(=O)c3sc4nc[nH]c(=O)c4c3C)CC2)cc1Cl`: the activation was inactive: 0.0329%. Consider `COc1ccc(NC(=O)c2cc3nc(-c4ccc(Cl)c(Cl)c4)cc(C(F)(F)F)n3n2)c(OC)c1`, for which the activation was inactive: -12.4%. For `CCCNC(=O)c1cnn2c(C)c(Cc3c(C)cc(C)cc3C)c(C)nc12` the value was inactive: -2.54%. As to `CCOc1ccccc1NC(=O)N1CCC(n2c(C)nc3cccnc32)CC1`, the activation was inactive: -1.59%.

Take `Cc1sc2ncn(CC(=O)Nc3ccc(F)cc3F)c(=O)c2c1S(=O)(=O)N1CCC(C)CC1`: the activation is inactive: 0.387%.
